Reference: the supplement of paper PMC3334620
Whole data set: some 33,000 sequences, median “E-score (-0.5 to 0.5)” near -0.032, cut for the highest 2% near 0.36. Some of the results follow.

target: T1, Sko1 (UniProt Q02100); test: PBM E-score (8-mer binding enrichment) (E-score (-0.5 to 0.5)); higher = stronger / more preferred TF binding; most listed sequences are background and not binding sites; details: protein concentration: 200 nM; construct: GST-full length
T1 sequence: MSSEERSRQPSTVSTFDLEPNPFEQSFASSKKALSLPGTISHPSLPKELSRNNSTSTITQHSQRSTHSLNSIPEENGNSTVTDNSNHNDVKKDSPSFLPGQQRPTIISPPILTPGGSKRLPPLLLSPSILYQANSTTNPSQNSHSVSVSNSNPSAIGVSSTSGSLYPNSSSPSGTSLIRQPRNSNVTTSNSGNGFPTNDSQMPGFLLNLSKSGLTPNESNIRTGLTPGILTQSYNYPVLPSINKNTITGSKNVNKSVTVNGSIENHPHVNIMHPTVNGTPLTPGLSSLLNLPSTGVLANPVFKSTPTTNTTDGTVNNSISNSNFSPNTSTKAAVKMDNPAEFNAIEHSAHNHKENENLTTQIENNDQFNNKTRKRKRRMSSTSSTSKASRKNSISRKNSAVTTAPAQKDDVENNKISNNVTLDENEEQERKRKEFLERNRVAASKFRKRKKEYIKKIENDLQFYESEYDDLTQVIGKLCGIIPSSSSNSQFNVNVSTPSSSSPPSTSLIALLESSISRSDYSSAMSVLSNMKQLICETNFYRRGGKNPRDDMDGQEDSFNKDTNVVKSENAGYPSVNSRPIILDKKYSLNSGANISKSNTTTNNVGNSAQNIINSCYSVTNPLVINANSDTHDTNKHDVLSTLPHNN
Procedure: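 Universal 'all 10-mer' protein binding microarrays (Agilent AMADID 015681) probed with GST-tagged S. cerevisiae TFs (full-length or DBD) made by in vitro transcription/translation (PURExpress), about 100-200 nM. Bound TF was detected with fluorescent anti-GST. Each ungapped 8-mer (which stands for itself and its reverse complement) is scored by the PBM enrichment score (E-score), a modified Wilcoxon-Mann-Whitney statistic from -0.5 to +0.5, computed with the Universal PBM Analysis Suite. Scale: above 0.35 generally sequence-specific binding.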

Row | Sequence | PBM E-score
1 | ACGGCACT | -0.14
2 | AAAACTCA | 0.0634
3 | GAATGATA | 0.228
4 | CCGTCCTA | -0.118
5 | ACAGCTAT | -0.133
6 | CAGTGACG | 0.408
7 | GCTGTTAA | 0.164
8 | ACGCGTTG | 0.232
9 | CTTACGCC | 0.193
10 | ATCGGGTA | -0.111
11 | TACATCGA | 0.0499
12 | AGGAATCC | -0.243
13 | CCAGTTCG | -0.0346
14 | CAGGCCCA | -0.133
15 | GTACCAAC | 0.219
16 | ATCGAAAC | 0.0876
17 | GCCTAAAA | -0.123
18 | CCTGCGCA | -0.179
19 | ACGCTGAC | 0.236
20 | CTCCTCGC | -0.259
21 | ATATGCGG | -0.0141
22 | AGCCGCTC | -0.101
23 | AGCGCCAT | -0.295
24 | ACGGAGTG | -0.0307
25 | CAAGTACC | -0.0542

Row | Sequence | PBM E-score
26 | AGGTCGGC | -0.336
27 | AGATCCCT | -0.16
28 | AACTCTAG | 0.125
29 | AGCCGCTG | -0.164
30 | CACCTTCA | -0.146
31 | ACCCGTGA | 0.0498
32 | ACCACACC | -0.165
33 | CTGCTAAC | -0.187
34 | GGGACCCC | -0.328
35 | AAGGAGGT | -0.361
36 | CTTCCCTA | -0.242
37 | ACTCCAAA | 0.00489
38 | ACCATCCC | -0.118
39 | AGTTGCCA | -0.218
40 | CCTGTCGA | -0.255
41 | CTGGTAAC | 0.038
42 | AAAATGAG | 0.162
43 | AATGACGG | 0.388
44 | CACAGGGG | -0.254
45 | CACTGTGC | -0.00954
46 | GGGGAAGA | -0.0521
47 | ATCGCTAG | -0.0122
48 | TGCGAACA | 0.0843
49 | AAGACAGT | -0.0571
50 | AGTAGAAG | -0.0555

Row | Sequence | PBM E-score
51 | ACAGGGGC | -0.25
52 | CCCCGAAC | -0.317
53 | CAGTGGTA | 0.0373
54 | AAGGGGAA | -0.147
55 | GCACCCAC | 0.144
56 | AATCTGGG | -0.0944
57 | ATAAGCGG | 0.015
58 | AACAGACT | 0.0398
59 | AGCTAGGA | -0.3
60 | ACTAGGAT | 0.0968
61 | CCCGTACC | -0.273
62 | CAGTTAGC | -0.181
63 | AAACTGAG | -0.159
64 | AACGATCA | 0.011
65 | GTGGCCGA | -0.0715
66 | AGCAGGAC | -0.0677
67 | GTGGATTA | 0.0711
68 | CACTCAGA | -0.0015
69 | GATTCTCC | -0.28
70 | ATGACCGG | -0.0369
71 | TATGTGGA | 0.138
72 | AGTATTTC | 0.108
73 | CCCCTGAC | -0.0317
74 | CCCTTCAA | -0.0706
75 | AAACTCGT | 0.18

Row | Sequence | PBM E-score
76 | TAGGAGAA | -0.0901
77 | AAATCGGT | -0.125
78 | ACTCGAGC | 0.00328
79 | AACGTTTC | 0.199
80 | GGACGACA | 0.0412
81 | GGTAGTGA | -0.115
82 | CGCAGAAA | 0.0541
83 | CAGTAAAG | 0.0535
84 | ATTGGCCC | -0.325
85 | CCGCGGAC | -0.315
86 | ATACTACA | 0.211
87 | AACTTAAA | 0.168
88 | CACCAGCG | -0.152
89 | AATGAGAG | -0.0546
90 | AACACTGT | 0.0285
91 | CTTGCCCA | -0.163
92 | GACGGAAA | 0.0994
93 | ACACGGGG | -0.242
94 | AGTCAGTG | -0.212
95 | AGGAAACC | -0.104
96 | AAATTTCG | 0.218
97 | AGCAGCCT | -0.241
98 | GGGTAAAA | 0.149
99 | CCGTAAAA | 0.053
100 | GCATTCGA | -0.00419

Row | Sequence | PBM E-score
101 | CAGCAAAA | 0.139
102 | CCCCCGCG | -0.254
103 | TCGTCTCA | -0.0858
104 | CTCTTACC | 0.00012
105 | CACCAACG | -0.063
106 | AAAGCTAC | -0.0321
107 | CTCCTCTA | -0.229
108 | CTTAAAAC | 0.151
109 | CATTAAAG | 0.132
110 | CGCCGGCG | -0.192
111 | CGCTAGAC | -0.184
112 | ACAACACC | -0.0425
113 | AATCGGGT | 0.047
114 | CAGTCGTA | 0.0343
115 | GAAGTACC | -0.088
116 | GTCTCGCA | -0.11
117 | GAAATAGA | 0.191
118 | GGCCCCCC | -0.429
119 | TATAGAAA | 0.0683
120 | AAAGTACC | -0.0499
121 | CCTCCGCG | -0.275
122 | AGACCGTC | -0.227
123 | ACATAGGC | 0.0432
124 | CTTCTACC | -0.3
125 | CCGATGTA | -0.0112

Row | Sequence | PBM E-score
126 | ATAGCCAC | 0.0887
127 | CTGCGGGC | -0.314
128 | CTGCGGCC | -0.273
129 | GTTCGCAA | 0.212
130 | AATATCAG | 0.0929
131 | ACTATAGT | 0.222
132 | ATCGAAAA | 0.159
133 | GCGTCACC | 0.341
134 | CAGAAACG | 0.204
135 | CTGAAATA | 0.0841
136 | AACCTTCC | -0.0961
137 | TAATTACA | 0.263
138 | AAAGTTTA | 0.132
139 | GATGAAAC | 0.113
140 | CGGGCGCA | -0.219
141 | GGTTTACA | 0.112
142 | AAGGCCTG | -0.243
143 | ACCATACG | 0.27
144 | AGCGAATG | -0.219
145 | AGCGGGGC | -0.21
146 | ATTAGCTG | 0.0251
147 | AAACATGC | 0.0851
148 | AGTAACGC | 0.035
149 | CCATAAGA | -0.0709
150 | GAACTAGC | -0.187

Row | Sequence | PBM E-score
151 | CTCATGAG | 0.135
152 | ATCCAAAA | 0.0858
153 | GCTTCAGA | -0.2
154 | AGATTCAG | -0.0409
155 | CAAAGGGG | -0.222
156 | CCTAGGCC | -0.252
157 | ACTCTCCT | -0.151
158 | AGCCAGCG | -0.188
159 | CGGAGTGA | 0.0511
160 | ACTCTCTA | -0.188
161 | AATGTCAG | -0.0112
162 | CAAAGATC | 0.0358
163 | GCCGACGC | -0.163
164 | ACCGGCAA | -0.226
165 | GACGACAC | 0.235
166 | CAGATGAA | 0.0113
167 | AACAGCCG | -0.186
168 | ACAGCATA | 0.115
169 | AGTTTACC | 0.0666
170 | GCAGCGCA | -0.186
171 | CTTTATCA | 0.0572
172 | CACAACTC | -0.0292
